# About 14,000 (4.5%) of roughly 310,000 compounds showed an effect of 50% or more. Effects have a minus sign here. Some of the results follow.
# Target: human ether-à-go-go-related gene (hERG) potassium channel (human, UniProt Q12809)
# Experiment: primary screen, population patch clamp on CHO cells stably expressing hERG
# 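Further: peak tail current of the secondary pulse compared with the same well before compound.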
# Sequence of human ether-à-go-go-related gene (hERG) potassium channel (Q12809 whole entry, looked up): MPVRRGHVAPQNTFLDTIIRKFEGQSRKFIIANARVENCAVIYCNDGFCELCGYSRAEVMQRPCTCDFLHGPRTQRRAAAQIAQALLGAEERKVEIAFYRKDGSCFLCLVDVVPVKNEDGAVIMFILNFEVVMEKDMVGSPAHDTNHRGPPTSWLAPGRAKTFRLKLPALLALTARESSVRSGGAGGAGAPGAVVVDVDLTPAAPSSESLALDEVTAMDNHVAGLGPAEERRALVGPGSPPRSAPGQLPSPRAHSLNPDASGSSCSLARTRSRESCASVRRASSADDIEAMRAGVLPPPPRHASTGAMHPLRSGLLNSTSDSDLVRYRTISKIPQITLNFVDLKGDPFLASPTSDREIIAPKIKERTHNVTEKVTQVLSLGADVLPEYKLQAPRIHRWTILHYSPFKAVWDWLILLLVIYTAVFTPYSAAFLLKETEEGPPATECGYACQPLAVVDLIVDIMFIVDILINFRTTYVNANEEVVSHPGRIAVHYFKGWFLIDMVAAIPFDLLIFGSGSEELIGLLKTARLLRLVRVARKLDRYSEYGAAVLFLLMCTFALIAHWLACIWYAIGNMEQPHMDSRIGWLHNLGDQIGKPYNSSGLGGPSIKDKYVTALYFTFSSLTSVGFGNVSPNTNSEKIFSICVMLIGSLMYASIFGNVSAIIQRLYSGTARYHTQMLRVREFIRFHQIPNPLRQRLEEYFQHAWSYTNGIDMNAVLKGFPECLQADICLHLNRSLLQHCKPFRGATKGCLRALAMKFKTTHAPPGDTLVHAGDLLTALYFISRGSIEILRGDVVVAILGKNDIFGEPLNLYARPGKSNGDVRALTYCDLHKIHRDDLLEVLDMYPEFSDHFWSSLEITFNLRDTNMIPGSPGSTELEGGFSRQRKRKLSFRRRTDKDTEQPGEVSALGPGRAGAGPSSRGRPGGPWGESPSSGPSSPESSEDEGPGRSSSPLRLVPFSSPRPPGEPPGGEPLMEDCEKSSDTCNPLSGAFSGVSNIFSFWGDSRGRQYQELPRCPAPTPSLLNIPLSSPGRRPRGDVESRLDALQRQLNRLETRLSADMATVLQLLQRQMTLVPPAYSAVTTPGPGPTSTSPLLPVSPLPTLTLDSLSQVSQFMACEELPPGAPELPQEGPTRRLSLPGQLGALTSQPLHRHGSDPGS
row,SMILES,"hERG current change (%, negative = inhibition) at 10uM"
1,O=c1c2ccccc2nc(N2CCCC2)n1-c1ccccc1,10.7%
2,CC(C)C[C@H](NC(=O)N1CCn2c1nc1ccccc12)C(=O)NCc1ccccc1,-5.34%
3,CCSc1nnc(NC(=O)C2CC2c2ccccc2)s1 (centres unmarked),10.6%
4,CCCn1c(-c2cccnc2Cl)nc2cc(Cl)c(Cl)cc21,-28.1%
5,COc1ccc(-c2cnc3c(c2)CCC3(C#N)C#N)cc1,-34.4%
6,CCCCn1c(N)c(N(CCOC)C(=O)CCCc2cccs2)c(=O)[nH]c1=O,-11.5%
7,COc1cc(COCC(O)CN2CCOCC2)cc(OC)c1OC.Cl (centres unmarked),-0.365%
8,O=C1Nc2ccccc2C1Cc1ccccc1 (centres unmarked),-6.97%
9,COc1ccc(CN2CCN(c3ccc(F)cc3)CC2)c(OC)c1OC,-70.2%
10,O=C(CS(=O)(=O)Cc1ccccc1)N1CCN(c2ccccc2F)CC1,-1.2%
11,CN(C)CCCN(C(=O)CCc1ccccc1)c1nc2ccc(Cl)cc2s1.Cl,-24.4%
12,CCCCC(O)(c1ccc(CC)cc1)C(CN1CCOCC1)c1ccccc1.Cl (centres unmarked),0.072%
13,CCC(=O)NNC(=O)CCC(=O)Nc1cccc(Cl)c1C,12.3%
14,CC(C)C(=O)Nc1ccccc1N1CCN(S(C)(=O)=O)CC1,-4.44%
15,CCOC(=O)N1CCN(S(=O)(=O)c2ccc(F)c(C(=O)Nc3cccc(Cl)c3C)c2)CC1,-3.81%
16,CCN(CC(=O)NCc1cccs1)C(=O)c1ccc(S(=O)(=O)Nc2ccccc2C)cc1,-24.3%
17,CC(=O)CCN1CCOCC1,0.857%
18,O=C(C1CCCN(c2nnc(-n3cccc3)s2)C1)N1CCN(c2ccccc2)CC1 (centres unmarked),-47%
19,O=C(CCn1c(=O)sc2ccccc21)NCc1ccc2c(c1)OCO2,20.6%
20,CC12CCC(C(=O)NC3CCCCC3)([C@H](Br)C1=O)C2(C)C (some centres unmarked),10.6%
21,Cc1ccccc1C(=O)O/N=C(\N)c1cccc([N+](=O)[O-])c1,-13.2%
22,Cc1ccc(C)c(NC(=O)C2CCCN2S(=O)(=O)c2ccc3c(c2)n(C)c(=O)c(=O)n3C)c1 (centres unmarked),-26.8%
23,CCCn1nc(NS(=O)(=O)c2cccc3nonc23)c2cc3ccccc3nc21,4.72%

row,SMILES,"hERG current change (%, negative = inhibition) at 10uM"
1,CCc1nn2c(=O)c(S(=O)(=O)Nc3cccc(F)c3)c(C)nc2s1,1.42%
2,COc1ccc(CNC(=O)C(NS(=O)(=O)c2ccc3c(c2)CCCN3C(C)=O)C(C)C)cc1 (centres unmarked),-8.3%
3,COc1ccccc1/C=C1\SC(=S)N(CC(=O)Nc2nnc(C)s2)C1=O,13.3%
4,CN1CCN(C(=O)c2cc(Oc3c(F)c(F)c(F)c(F)c3F)cc(C(=O)N3CCN(C)CC3)c2)CC1,10.8%
5,CCCCNC(=O)Nc1nc(SCC(=O)OCC)n[nH]1,4.64%
6,O=C(CSc1nnc2scc(-c3ccccc3)n12)NCc1ccc2c(c1)OCO2,-21.1%
7,CCc1ccc(S(=O)(=O)NCc2ccc(N3CCN(C)CC3)cc2)cc1,0.364%
8,Cc1oc(-c2ccc(F)cc2F)nc1CN1C[C@@H]2C[C@@H](C1)c1cccc(=O)n1C2,-74.4%
9,O=C1CCN(Cc2ccccc2)S(=O)(=O)c2ccc(C(F)(F)F)cc21,2.95%
10,CC(=O)c1cccc(NC(=O)Cc2coc3cc4c(cc23)CCC4)c1,3.83%
11,CCn1c(NC(=O)c2cccs2)c(-c2cccs2)c(=O)c2ccccc21,2.49%
12,Cn1cccc1C(=O)OCc1cc(-c2ccco2)on1,6.76%
13,CC(=O)c1ccc(OCc2cc(C(=O)N(C)Cc3ccon3)no2)cc1,5.57%
14,Cc1ccccc1C(=O)NCC(=O)Nc1ccccc1C(F)(F)F,22.7%
15,COC(=O)c1sccc1NC(=O)CCC1CCCCC1,12%
16,CCN(C(=O)COC(=O)COc1ccc(Cl)c(C)c1)C1CCS(=O)(=O)C1 (centres unmarked),-45.6%
17,CCCCCn1c(CNC(=O)COC)nc2ccccc21,-10.4%
18,COc1ccccc1CNC(=O)c1cc(C)nn1-c1ccccc1,1.87%
19,N#Cc1ccc(OCC(=O)Nc2nc(-c3ccncc3)cs2)cc1,1.73%
20,COc1ccccc1N1CCN(C(=O)CCc2ccc(S(=O)(=O)NCC(C)C)cc2)CC1,-5.22%
21,C=CCSc1nnc(NC(=O)CCNC(=O)c2ccco2)s1,-0.768%
22,O=C(Nc1ccc(F)cc1F)N1CCCN(c2ccc([N+](=O)[O-])cn2)CC1,-50.2%
23,Cc1ccc(CN(C)C(=O)c2ccccc2Oc2ccccc2)o1,-21.7%

row,SMILES,"hERG current change (%, negative = inhibition) at 10uM"
1,Cc1cc([N+](=O)[O-])ccc1N,-0.0947%
2,NC(=O)c1ccc(Cc2ncc(C(F)(F)F)cc2Cl)s1,6.97%
3,CCOc1ccc(S(=O)(=O)N(CC(=O)NCC2CCCO2)c2ccc(F)cc2)cc1 (centres unmarked),-23.7%
4,O=C(CCNC(=O)c1ccccc1Cl)NNC(=O)c1ccccc1O,9.43%
5,CN1CCN(C(=S)Nc2ccc(Oc3ccccc3)cc2)CC1,-11.6%
6,O=C(N/N=C/c1cccs1)C1COc2ccccc2O1 (centres unmarked),-5.17%
7,O=[N+]([O-])c1cccnc1N1CCCNCC1,-30.4%
8,O=C(NCc1ccccc1)C1=C[C@H](c2coc3ccccc3c2=O)C[C@H](OCCCCO)O1,-55.4%
9,CCOC(=O)CN1N=C(c2ccc(Cl)cc2)CCC1=O,-26.8%
10,COc1cc(-c2cc(N)n(S(=O)(=O)c3ccc(F)cc3)n2)cc(OC)c1OC,-24.8%
11,CCN(Cc1ccccc1)C(=O)COC(=O)c1n[nH]c2ccccc12,0.426%
12,O=C(CCc1ccccc1)Nc1nc2c(F)cc(F)cc2s1,7.91%
13,O=C(c1ccc2c3c(cccc13)CC2)C1CCCN(CC2CC2)C1 (centres unmarked),-46.3%
14,COc1ccc([C@H]2CC(=O)C=C(c3cccc(OC)c3OC)C2)cc1OC,-30%
15,O=C(CNC(=O)c1ccc(Br)o1)NCc1ccc(Cl)cc1Cl,-8.98%
16,COc1nccc(Nc2ccccc2)c1C#N,-7.83%
17,Cc1c(CCC(=O)NC2CC2)c(=O)oc2cc(O)ccc12,1.97%
18,CCOc1ccc(Oc2ccc(S(=O)(=O)N3CCOCC3)cc2N)cc1,-19.4%
19,CCn1c(CNC(=O)c2ccco2)nnc1SCC(=O)Nc1cc(C(F)(F)F)ccc1Cl,-31.6%
20,Cc1cccc(OC(C)C(=O)Nc2cc(S(=O)(=O)N3CCCCC3)ccc2C)c1 (centres unmarked),-12.9%
21,COC(=O)c1c(NC(=O)CCN2CCOCC2)sc2c1CCCC2,-26%
22,Cc1ccc(C)c2nc(SCC(=O)N3CCCc4ccccc43)c(C#N)cc12,2.14%
23,COCCNC(=O)c1ccc2c3n(nc2c1)-c1ccc(C)cc1CO3,-14.8%

row,SMILES,"hERG current change (%, negative = inhibition) at 10uM"
1,S=C(NCc1ccc(Cl)cc1Cl)NC1CCCCC1,24.2%
2,CCC(C(=O)N1CCN(C(=O)c2ccco2)CC1)n1sc2ccccc2c1=O (centres unmarked),-26%
3,CC(C)CC(=O)Nc1ccccc1Oc1ccccc1,-2.96%
4,CCOc1cccc(-c2cc(C(=O)NN)[nH]n2)c1,9.76%
5,COc1ccc(N2CCN(S(=O)(=O)CCNC(=O)C3CC(=O)N(c4ccccc4)C3)CC2)cc1 (centres unmarked),22.6%
6,COC(=O)c1ccc(S(=O)(=O)N(CCO)Cc2ccccc2)n1C,6.18%
7,CCC1(CC)N=C(c2ccccc2)C(=S)N1,10.2%
8,COc1ccc(Cl)cc1C(=O)NCCCN1CCOCC1,9.16%
9,NC(=O)C1CCN(CC(=O)Nc2nc(-c3ccccc3)cs2)CC1,-0.413%
10,Cn1ncc(Oc2ccc([N+](=O)[O-])cc2)c(Cl)c1=O,-71.2%
11,O=C(Nc1cccc(F)c1)C1CCCN(S(=O)(=O)c2cccc3cccnc23)C1 (centres unmarked),19.7%
12,Cc1cccc(N2CC(C(=O)Nc3nnc(SCc4cccnc4)s3)CC2=O)c1 (centres unmarked),-4.03%
13,CN(C)S(=O)(=O)N1CCC(Oc2cccc(C(=O)N3CCSCC3)c2)CC1,13.6%
14,CCCCC[C@H](O)/C=C/[C@H]1CCC(=O)[C@@H]1CCCCCCC(=O)N1CCCCC1CO (some centres unmarked),4.91%
15,O=C(CCN1C(=O)/C(=C/c2cccc(Br)c2)SC1=S)NNC(=O)c1cccnc1,6.24%
16,Cc1sc2ncnc(N3CCC(C(=O)Nc4cc(Cl)ccc4Cl)CC3)c2c1C,4.42%
17,O=S(=O)(c1ccc(-c2ccon2)s1)N1CCN(c2ccncc2)CC1,-13.5%
18,CCOC(=O)N1CCN(C(=O)c2ccc(N(Cc3ccc(C)cc3)S(C)(=O)=O)cc2)CC1,-31.3%
19,CSc1nc(C)c(Cl)c(C)c1C#N,-4.89%
20,COc1ccc(NCc2nnc(SCC#N)n2-c2ccccc2OC)cc1,-8.62%
